According to ChEMBL document CHEMBL1201862, “PubChem BioAssay data set” (2004):
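Protocol summary: plate cells (96-well), add compound at 5 concentrations, incubate 48 h, interpolate endpoints linearly. GI50 marks 50% less growth.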 Activity calls are given as the source filed them. Cut-off read from the data, not from the text of the source: active = GI50 up to about 1.1 µM and inactive = higher.

test system: NCI-H322M; test: growth of human tumour cells (NCI), 48 h

Question: For CN(NC(=O)c1cccs1)C1=NCCN1, which GI50 is on record?
Answer: inactive: > 100 µM

Question: With COC1(OC)C2(Cl)CCC1(Cl)C(OC(C)=O)C2 (stereo unspecified) as the compound, how does the GI50 read?
Answer: inactive: > 100 µM

Question: For Cc1ccc(SCC(CSCCO)OCn2cnc3c2N=C(N)NC32OCCO2)cc1 (stereo unspecified), which GI50 is on record?
Answer: inactive: > 100 µM

Question: With CCC(=C(C#N)C#N)c1cc(OC)c(OC)c(OC)c1 as the compound, how does the GI50 read?
Answer: inactive: > 100 µM

Question: For COC(=O)c1sc(=O)n(-c2ccccc2)c1SCc1ccccc1, which GI50 is on record?
Answer: inactive: > 100 µM

Question: For COc1ccc(/C=C2\CCCC(C(NO)c3ccc(OC)cc3)C2=NO)cc1 (stereo unspecified), which GI50 is on record?
Answer: inactive: 69.3 µM

Question: With O=C(O)CCCCCOc1cccnc1/C=N/NC1=NCCN1 as the compound, how does the GI50 read?
Answer: inactive: > 100 µM

Question: How did the GI50 turn out when C[C@@H]1C[C@@H](O)[C@@]2(O)C13CC(=O)OC(C3)[C@@H](C)[C@@]2(C)CO (stereo partly specified) was run?
Answer: inactive: > 100 µM

Question: Which GI50 does the source give for C/C(=N\NC(=O)Nc1ccccc1Cl)c1ccc(O)cc1 here?
Answer: inactive: > 100 µM

Question: Which GI50 does the source give for BrC/C=C/C[P+](c1ccccc1)(c1ccccc1)c1ccccc1 here?
Answer: inactive: 50.7 µM

Question: N#Cc1c(C#N)c(-c2cccc([N+](=O)[O-])c2)n(-c2ccccc2)c1N was tested. Which GI50 did it give?
Answer: inactive: > 100 µM

Question: O=C(NCCCCCCNCc1cccc2ccccc12)Nc1cccc2ccccc12 was tested. Which GI50 did it give?
Answer: inactive: > 100 µM

Question: With N#CC1=C(N)n2c(s/c(=C\c3ccc(Cl)cc3)c2=O)=C(c2nc3ccccc3[nH]2)C1c1ccc(Cl)cc1 (stereo unspecified) as the compound, how does the GI50 read?
Answer: active: 0.897 µM

Question: How did the GI50 turn out when CCCCNC(=S)Nc1nc(C(=O)NNC(=S)NCc2ccccc2)cs1 was run?
Answer: inactive: 28.2 µM

Question: Which GI50 does the source give for COc1cccc(NC(=S)Nn2c(C)nc3ccccc3c2=O)c1 here?
Answer: inactive: > 100 µM

Question: For CC1(C)CCSC(/C=C/c2ccccc2)=N1, which GI50 is on record?
Answer: inactive: 17.7 µM

Question: Which GI50 does the source give for CN(C(=O)Cc1cc(Cl)c(Cl)cc1NC(=O)CN)[C@H]1CCCC[C@@H]1N1CCCC1 here?
Answer: inactive: 87.5 µM

Question: With Cc1ccc(NC(=O)CC(=O)N2N=C(N3CCCCC3)CC2c2ccccc2)cc1 (stereo unspecified) as the compound, how does the GI50 read?
Answer: inactive: > 100 µM

Question: CC(C)(C)C#C[P+](c1ccccc1)(c1ccccc1)c1ccccc1 was tested. Which GI50 did it give?
Answer: active: 0.521 µM

Question: For O=C(O)Cc1ccccc1CCc1ccccc1Cl, which GI50 is on record?
Answer: inactive: > 100 µM

Question: How did the GI50 turn out when C[C@]12CC[C@H]3[C@@H](CC=C4C[C@@H](N5CCCC5)CC[C@@]43C)[C@@H]1C/C(=C\c1ccc([N+](=O)[O-])cc1)[C@@H]2O was run?
Answer: inactive: 16.8 µM

Question: How did the GI50 turn out when O=C1c2ccccc2-c2c1c(-c1ccc(O)cc1O)nc1ccc3ccccc3c21 was run?
Answer: inactive: > 100 µM

Question: For Cn1cc2ccccc2c1-c1nc(F)nc(Nc2ccc(N)cc2)n1, which GI50 is on record?
Answer: inactive: 38.4 µM

Question: With N#CNC1=NC(CCCC(=O)Nc2cccc([N+](=O)[O-])c2)=C(c2nc3ccccc3[nH]2)C(N)N1 (stereo unspecified) as the compound, how does the GI50 read?
Answer: inactive: > 100 µM

Question: COCCOC(=O)NCn1cc(-c2ccccc2)nn1 was tested. Which GI50 did it give?
Answer: inactive: > 100 µM

Question: COc1cc(-c2nn3c(=O)n(-c4ccc(Cl)cc4)c(=O)nc3s2)cc(OC)c1OC was tested. Which GI50 did it give?
Answer: inactive: > 55.1 µM

Question: For CSC1=C(C#N)C(=O)N(c2ccc(Cl)cc2)C(=O)C1C#N (stereo unspecified), which GI50 is on record?
Answer: inactive: > 100 µM

Question: With CC1=CC(=O)/C(=C/NC(=S)c2ccncc2)C(=O)O1 as the compound, how does the GI50 read?
Answer: inactive: > 100 µM

Question: For CC(C)C(=O)OCN(C)c1nc(N(C)COC(=O)C(C)C)nc(N(C)COC(=O)C(C)C)n1, which GI50 is on record?
Answer: inactive: 61.1 µM

Question: For C=CCCC1CCCCNC1=S (stereo unspecified), which GI50 is on record?
Answer: inactive: > 10 µM

Question: c1cc2cc3c4c5c(cc6ccc7cc8cc9c%10c8c8c7c6c5c8c5c%10c(c1C9N1CCOCCOCCOCCOCCOCC1)c2c45)C3 (stereo unspecified) was tested. Which GI50 did it give?
Answer: inactive: > 100 µM

Question: For Cc1ccc(S(=O)(=O)/N=C2/N(C)CCCS2(=O)=O)cc1, which GI50 is on record?
Answer: inactive: > 100 µM

Question: O=C1CCSSCCC(=O)NCCN1 was tested. Which GI50 did it give?
Answer: inactive: > 100 µM

Question: CC1OC(n2cc(F)c(=O)[nH]c2=O)CCC1O (stereo unspecified) was tested. Which GI50 did it give?
Answer: inactive: > 100 µM

Question: For Nc1nc(SCC(=O)c2ccccc2)nc2nc3c(c(-c4ccccc4)c12)CCCC3, which GI50 is on record?
Answer: inactive: 12.7 µM

Question: ClC(Cl)[Si]12OCCN(CCO1)CCO2 was tested. Which GI50 did it give?
Answer: inactive: > 100 µM

Question: Cc1ccc(S(=O)(=O)NCCN(CCNS(=O)(=O)c2ccc(C)cc2)S(=O)(=O)c2ccc(C)cc2)cc1 was tested. Which GI50 did it give?
Answer: inactive: 27.6 µM

Question: Cc1cccc(CNNC(=O)c2cc[n+]([BH2-]C#N)cc2)c1 was tested. Which GI50 did it give?
Answer: inactive: 33.3 µM

Question: Which GI50 does the source give for COc1cc(C2c3cc4c(cc3[C@@H](Nc3cccc(CO)c3)C3COC(=O)[C@H]23)OCO4)cc(OC)c1O (stereo partly specified) here?
Answer: inactive: 5.92 µM

Question: Which GI50 does the source give for CCC(CCCC[C@H]1CC[C@@H]2CC(=O)C[C@H]12)OC (stereo partly specified) here?
Answer: inactive: > 100 µM

Question: With O=S(=O)(O)Nc1ccc(-c2nc3ccccc3s2)cc1Cl as the compound, how does the GI50 read?
Answer: inactive: > 100 µM

Question: With COc1c(O)c(OC)c2oc(-c3ccc(O)c(O)c3)c(OC)c(=O)c2c1O as the compound, how does the GI50 read?
Answer: inactive: 17.8 µM

Question: With NC1=C2C(Br)=CN([C@@H]3O[C@H](CO)[C@@H](O)[C@@H]3O)C2C(=O)N=N1 (stereo partly specified) as the compound, how does the GI50 read?
Answer: inactive: 6.17 µM

Question: With C[N+](C)(C)CCC(=O)CC[N+](C)(C)C as the compound, how does the GI50 read?
Answer: inactive: 89.3 µM

Question: CC(C)CC(=O)NC(C(=O)NC(C(=O)NC(CC(C)C)C(O)CC(=O)NC(C)C(=O)NC(CC(C)C)C(O)CC(=O)O)C(C)C)C(C)C (stereo unspecified) was tested. Which GI50 did it give?
Answer: inactive: > 100 µM

Question: For COC(=O)c1nc(-c2ccc3c(n2)C(=O)C(=N)C(OC)=C3O)c(N)c(-c2ccc(OC)c(OC)c2O)c1C, which GI50 is on record?
Answer: active: 0.809 µM
